Consider 120 sequences from the supplement of paper PMC10126150.

Sequences with one replicate were seen in a single cluster, so their values are uncertain.
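Further: ATP exposure 15 min at 22 °C before imaging.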

For this data set, the system named is ATP. In words: switch fluorescence ratio, 500 uM ATP over buffer (Cy3 cluster intensity, sum of 5 cycles each) (fold (ratio)); higher = stronger signal-on switching upon ATP binding; sequences stand for … in TCGTCGGCAGCGTCAGATGTGTATAAGAGACAGTTTTTTTTTTTTTTTTTTTTTTTTT…TC. Conditions: aptamer strand: ATP DNA aptamer (quencher-CACCTGGGGGAGTATTGCGGAGGAAGG + anchor), 100 nM annealed; ATP concentration: 500 uM; one replicate. In short, it runs like this:
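The quencher-labelled ATP aptamer, at 100 nM, was annealed to Cy3-labelled switching-strand clusters on a modified Illumina MiSeq flow-cell. The clusters were imaged in selection buffer, then after 15 min with 500 uM ATP at 22 °C, and this buffer/ATP cycle ran five times with NaOH stripping and re-annealing between runs. Per-cluster fluorescence ratios, summed target-cycle over summed buffer-cycle Cy3 intensity, were averaged per switch-domain sequence. Clusters outside 100-1000 RFU were excluded.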
Regarding TTAACATGCT, the switch fluorescence ratio came to 1.04.
For CAGTGTAATG the value was 0.994; for AAGGCGTATG, 0.972; for AGTTATTGTC, 1.04.
For CCCGGACGAC the value was 2.41.
For TATTTACGTC the value was 0.99; for TTGACAGACT, 1.01; for TACCTAGGGA, 1.39.
For GCGTTGAGAT, the switch fluorescence ratio was 0.977.
Next, TTGGCTGTTC: 1.07.
As for ATTGCACAAC, the switch fluorescence ratio was 1.1.
Next, TAGTAGTAT: 0.99; GGGCGCCAAG: 0.977; ACGACTATCT: 1.1.
Turning to AGGCTTCCAG, the switch fluorescence ratio is 1.01.
For AGGAAGCGTT the value was 0.971; for AAAATATCGT, 1.04.
Next, ACCTTAAAC: 1.09; TAACATGATG: 0.99.
Next, TGGTATGGCA: 1.02.
Turning to GCTTTACGTC, the switch fluorescence ratio is 1.02.
Next, CCGTGCTGCT: 1.05; ATGGTGCTAG: 0.987; CTATGTGGG: 1.01.
For AAAGGTTAGA the value was 1.01; for CTGTCACAGA, 1.01.
Turning to GCTATGATT, the switch fluorescence ratio was 0.987.
Next, CGCTCTACTA: 1.36; CGGTTTCCTT: 1.65; AGCGGGCCCG: 0.975.
For GGATAATATA the value was 0.945.
With TCGTTGTTGA, the switch fluorescence ratio amounted to 0.983.
In the case of GCATGCTGAA, the switch fluorescence ratio was 0.964.
Next, CATATGCCTC: 1.02; TAGGTCGG: 0.997.
For ATTTTGGCCG the value was 0.913.
For TCCCCTGCTG the value was 1.11.
Regarding AAACCCTTAG, the switch fluorescence ratio was 1.03.
For AGGATGGCGC the value was 0.942; for CGCGGCGAAT, 1.14; for AACTGGCGGG, 0.992.
For TGCCATATGT the value was 1.03; for TGCCCTGTGC, 0.976; for AAACCGTAGA, 1.08.
For GGGTCGCTGT the value was 0.952.
TATCTCACAC: the switch fluorescence ratio was 1.04.
Consider TTTGAAGCCC, for which the switch fluorescence ratio is 1.07.
Next, AAGGTAGGTA: 0.974.
For TAGATAGGGT the value was 0.97.
Next, GATCGGCAGC: 1.1; CTTGCGGGGT: 1.04.
Turning to TGCGAAGGCG, the switch fluorescence ratio is 0.999.
For AAAGGGTCCT the value was 1.07; for ACAATAGCAG, 1.05.
For AGTTTGCAC the value was 1.02; for TCATTATGGG, 0.967.
As for ATAGTCGACC, the switch fluorescence ratio amounted to 0.969.
Turning to ACACTGGTCT, the switch fluorescence ratio was 1.04.
Consider GGTAGACGCG, for which the switch fluorescence ratio was 0.955.
For CTCGGGCCGG the value was 1; for GAGCGTTTTG, 1.03.
For GACGATTATC the value was 1.18; for GTGGCACATT, 1.01; for ATAAGCTCTA, 1.02.
As for CAAGCAACGT, the switch fluorescence ratio worked out at 0.975.
Regarding ATAGTGCCAA, the switch fluorescence ratio worked out at 1.01.
For TCAATACGGT the value was 1.21.
Regarding AGCCATATGG, the switch fluorescence ratio stood at 0.998.
For GATAGGCGAA the value was 1.03; for CTCGGCAGAT, 1.93; for GAGGCAAAGA, 1.17.
Next, GTATCTCATT: 1.02; TACGTAATAG: 2.94.
Next, AGTCTATGAT: 0.987; CCCATGAACG: 1.04.
As for CAGTAGTGGT, the switch fluorescence ratio was 0.979.
Next, TATCATGCGT: 1; CAAAATGCCG: 0.981; TCCTGGTGCT: 1.
As to TAGGCGCTAC, the switch fluorescence ratio turned out to be 1.69.
Regarding TGTGAAACGA, the switch fluorescence ratio came out at 1.04.
Consider TTAAGACACG, for which the switch fluorescence ratio amounted to 1.02.
Next, GCTATGGAAC: 0.994; GGTCGAAAAG: 1.02; ATGGATCAAT: 1.03.
For GGAGCTGAAG, the switch fluorescence ratio turned out to be 1.03.
For AGATGAGGGG the value was 1.02.
Next, GGAACGTCC: 1.05; ACCCCGAAAG: 1.13; AGTGGCGAAG: 0.978.
For TGGAGCCGAG the value was 1.04; for GGATTCATCG, 0.966; for CCCGTCCTTC, 1.1.
In the case of CTTGGGTGTC, the switch fluorescence ratio was 1.03.
Turning to CCTTTTACAT, the switch fluorescence ratio was determined as 1.02.
For ACTAGCCTCG the value was 0.982; for AGGGTAATCT, 1.14.
Next, GTGAATGGAC: 0.982; TAATTGTTA: 0.992; AGGGCACC: 1.03.
For TCGGGTTATT the value was 0.974; for ATAAAGGAGT, 0.961.
As to CGGGGAGGAT, the switch fluorescence ratio came out at 0.955.
Next, GGGAGGACCT: 1.06.
Turning to CGTCTGGTCG, the switch fluorescence ratio stood at 1.04.
Next, GGCTATACGC: 2.1.
For TATATGTTGT the value was 0.99; for TGTTATATAA, 1.01; for GTCACACAC, 1.36.
Next, CCTATTGGTC: 0.964; AAAACCGCCG: 1.07.
Take ATTAGAAGCG: the switch fluorescence ratio stood at 1.02.
For CGAGTAGTTA the value was 1.02; for TACAGCT, 1.04.
For ACTGTGATTG the value was 0.997; for GCTTAATTCT, 0.985; for TGCGCACGAG, 1.01.
For ACGAAGGCTG the value was 0.908; for CCGTCCAGCG, 1.22.
As for GCATGTCGAG, the switch fluorescence ratio worked out at 1.03.
